# Reference: the supplement of paper PMC8728848
# The list shows a part of the results.
# B1: SP8524D-bot-399-27-399 (Bacteroides ovatus) (protein)
# chain: DAKYDTLDTHAYIEEALSSTSQKVTVQATGESFTTLNVHLSNLSSTDNHYKLVTDQSVLDTYNHINGTGYIMLPKDYYTLPETITVKAGQYAADALSIALKAFSQEMMKSGESYALPVKLVLQDGSISPMENTGTFVILAESIIEFSAPMFVGAPSLKANKFTESPETYSQYTIEVRFQVANTADRDRAVFKNGGDDANFILLRFEDPQSDNENYKAHSLVQIVGRNRLYLNPSNSFKPNEWQHLALVCDGSNYRLYINGVDSGVLSIPTGATTFSDVNWFCLGDDSYSRWGNCKILMSEARIWSVVRSASQIQNNMTQVSPKSVGLEAYWRFNEGQGNVFEDATGKGHTLTTSATPTWIDGILSTDKSTEWK
# Experiments:
# Assay in all cases: glycan array binding signal (z-score within array); higher = stronger binding
# Details in all cases: glycan notation: IUPAC condensed, linker removed
# [1] = molecular target: Gal6S(b1-4)Glc6S
# Procedure, shortened: (§1)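 Negative Z-scores can be read as non-binding. The Z-score is calculated within each array and then averaged across arrays of one protein sequence at different concentrations or buffers and across linkers. Arrays, 3228 in all, were curated from the Consortium for Functional Glycomics database and kept only where the protein sequence was available.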
# [2] = molecular target: Gal6S(b1-4)GlcNAc
# Procedure, shortened: as §1
# [3] = molecular target: Gal6S(b1-4)GlcNAc6S
# Procedure, shortened: as §1
# [4] = molecular target: GalNAc(a1-3)Gal
# Procedure, shortened: as §1
# [5] = molecular target: GalNAc(a1-3)GalNAc
# Procedure, shortened: as §1
# [6] = molecular target: GalNAc(a1-3)GalNAc(b1-3)Gal(a1-4)Gal(b1-4)Glc
# Procedure, shortened: as §1
# [7] = molecular target: GalNAc(a1-3)GalNAc(b1-3)Gal(a1-4)Gal(b1-4)GlcNAc
# Procedure, shortened: as §1
# [8] = molecular target: GalNAc(b1-3)Gal
# Procedure, shortened: as §1
# [9] = molecular target: GalNAc(b1-3)Gal(a1-4)Gal(b1-4)GlcNAc
# Procedure, shortened: as §1
# [10] = molecular target: GalNAc(b1-3)Gal(a1-4)Gal(b1-4)GlcNAc(b1-3)Gal(b1-4)Glc
# Procedure, shortened: as §1
# [11] = molecular target: GalNAc(b1-3)Gal(a1-6)Gal(b1-4)Glc
# Procedure, shortened: as §1
# [12] = molecular target: GalNAc(b1-3)GalNAc
# Procedure, shortened: as §1
# [13] = molecular target: GalNAc(b1-3)GlcNAc
# Procedure, shortened: as §1
# [14] = molecular target: GalNAc(b1-4)Gal(b1-4)Glc
# Procedure, shortened: as §1
# [15] = molecular target: GalNAc(b1-4)GlcNAc
# Procedure, shortened: as §1
# [16] = molecular target: GalNAc(b1-4)GlcNAc(b1-2)Man
# Procedure, shortened: as §1
# [17] = molecular target: GalNAc(b1-4)GlcNAc(b1-2)Man(a1-3)[GalNAc(b1-4)GlcNAc(b1-2)Man(a1-6)]Man(b1-4)GlcNAc(b1-4)GlcNAc
# Procedure, shortened: as §1
# [18] = molecular target: GalNAc(b1-4)GlcNAc(b1-3)GalNAc(b1-4)GlcNAc
# Procedure, shortened: as §1
# [19] = molecular target: GalNAc(b1-4)GlcNAc6S
# Procedure, shortened: as §1
# [20] = molecular target: GalNAc(b1-6)GalNAc
# Procedure, shortened: as §1
# [21] = molecular target: GalNAc3S(b1-4)GlcNAc
# Procedure, shortened: as §1
# [22] = molecular target: GalNAc3S(b1-4)GlcNAc3S
# Procedure, shortened: as §1
# [23] = molecular target: GalNAc3S(b1-4)[Fuc(a1-3)]GlcNAc
# Procedure, shortened: as §1
# [24] = molecular target: GalNAc4S6S(b1-4)GlcNAc
# Procedure, shortened: as §1
# [25] = molecular target: GalNAc6S(b1-4)GlcNAc
# Procedure, shortened: as §1
# [26] = molecular target: Glc(a1-4)Glc
# Procedure, shortened: as §1
# [27] = molecular target: Glc(a1-4)Glc(a1-4)Glc(a1-4)Glc
# Procedure, shortened: as §1
# [28] = molecular target: Glc(a1-6)Glc(a1-6)Glc
# Procedure, shortened: as §1
# [29] = molecular target: Glc(a1-6)Glc(a1-6)Glc(a1-6)Glc
# Procedure, shortened: as §1
# [30] = molecular target: Glc(b1-4)Glc
# Procedure, shortened: as §1
# [31] = molecular target: Glc(b1-6)Glc
# Procedure, shortened: as §1
# [32] = molecular target: GlcA(b1-3)Gal
# Procedure, shortened: as §1
# [33] = molecular target: GlcA(b1-3)GlcNAc
# Procedure, shortened: as §1
# [34] = molecular target: GlcA(b1-6)Gal
# Procedure, shortened: as §1
# [35] = molecular target: GlcA3S(b1-3)Gal(b1-4)GlcNAc(b1-2)Man
# Procedure, shortened: as §1
# [36] = molecular target: GlcA3S(b1-3)Gal(b1-4)GlcNAc(b1-3)Gal(b1-4)Glc
# Procedure, shortened: as §1
# [37] = molecular target: GlcNAc(a1-3)Gal(b1-4)GlcNAc
# Procedure, shortened: as §1
# [38] = molecular target: GlcNAc(a1-4)Gal(b1-3)GlcNAc
# Procedure, shortened: as §1
# [39] = molecular target: GlcNAc(a1-4)Gal(b1-4)GalNAc
# Procedure, shortened: as §1
# [40] = molecular target: GlcNAc(a1-4)Gal(b1-4)GlcNAc
# Procedure, shortened: as §1
# [41] = molecular target: GlcNAc(a1-4)Gal(b1-4)GlcNAc(b1-3)Gal(b1-4)Glc
# Procedure, shortened: as §1
# [42] = molecular target: GlcNAc(a1-4)Gal(b1-4)GlcNAc(b1-3)Gal(b1-4)GlcNAc
# Procedure, shortened: as §1
# [43] = molecular target: GlcNAc(a1-4)Gal(b1-4)GlcNAc(b1-3)Gal(b1-4)GlcNAc(b1-3)Gal(b1-4)GlcNAc
# Procedure, shortened: as §1
# [44] = molecular target: GlcNAc(a1-4)Gal(b1-4)GlcNAc(b1-3)Gal(b1-4)[Fuc(a1-3)]GlcNAc(b1-3)Gal(b1-4)[Fuc(a1-3)]GlcNAc
# Procedure, shortened: as §1
# [45] = molecular target: GlcNAc(a1-6)Gal(b1-4)GlcNAc
# Procedure, shortened: as §1
binder,measurement,setting,value
B1,glycan array binding signal (z-score),[1],-0.373
same,glycan array binding signal (z-score),[2],0.112
same,glycan array binding signal (z-score),[3],0.274
same,glycan array binding signal (z-score),[4],-0.307
same,glycan array binding signal (z-score),[5],-0.153
same,glycan array binding signal (z-score),[6],-0.421
same,glycan array binding signal (z-score),[7],-0.337
same,glycan array binding signal (z-score),[8],-0.272
same,glycan array binding signal (z-score),[9],0.126
same,glycan array binding signal (z-score),[10],-0.549
same,glycan array binding signal (z-score),[11],-0.334
same,glycan array binding signal (z-score),[12],-0.48
same,glycan array binding signal (z-score),[13],-0.116
same,glycan array binding signal (z-score),[14],-0.135
same,glycan array binding signal (z-score),[15],0.432
same,glycan array binding signal (z-score),[16],0.026
same,glycan array binding signal (z-score),[17],-0.19
same,glycan array binding signal (z-score),[18],-0.306
same,glycan array binding signal (z-score),[19],0.264
same,glycan array binding signal (z-score),[20],-0.112
same,glycan array binding signal (z-score),[21],-0.2
same,glycan array binding signal (z-score),[22],-0.359
same,glycan array binding signal (z-score),[23],0.563
same,glycan array binding signal (z-score),[24],-0.062
same,glycan array binding signal (z-score),[25],-0.432
same,glycan array binding signal (z-score),[26],-0.117
same,glycan array binding signal (z-score),[27],-0.243
same,glycan array binding signal (z-score),[28],-0.172
same,glycan array binding signal (z-score),[29],-0.387
same,glycan array binding signal (z-score),[30],-0.387
same,glycan array binding signal (z-score),[31],-0.164
same,glycan array binding signal (z-score),[32],-0.529
same,glycan array binding signal (z-score),[33],-0.533
same,glycan array binding signal (z-score),[34],0.393
same,glycan array binding signal (z-score),[35],-0.378
same,glycan array binding signal (z-score),[36],-0.072
same,glycan array binding signal (z-score),[37],-0.203
same,glycan array binding signal (z-score),[38],-0.289
same,glycan array binding signal (z-score),[39],-0.226
same,glycan array binding signal (z-score),[40],0.072
same,glycan array binding signal (z-score),[41],-0.393
same,glycan array binding signal (z-score),[42],-0.166
same,glycan array binding signal (z-score),[43],-0.365
same,glycan array binding signal (z-score),[44],0.669
same,glycan array binding signal (z-score),[45],-0.542
